The values below come from the supplement of paper PMC3334620.

Over roughly 33,000 sequences, “E-score (-0.5 to 0.5)” has its median near -0.035; the highest 2% begin near 0.35. Some of the results follow.

This test addresses T1, Pdr3 (UniProt P33200).
T1 sequence: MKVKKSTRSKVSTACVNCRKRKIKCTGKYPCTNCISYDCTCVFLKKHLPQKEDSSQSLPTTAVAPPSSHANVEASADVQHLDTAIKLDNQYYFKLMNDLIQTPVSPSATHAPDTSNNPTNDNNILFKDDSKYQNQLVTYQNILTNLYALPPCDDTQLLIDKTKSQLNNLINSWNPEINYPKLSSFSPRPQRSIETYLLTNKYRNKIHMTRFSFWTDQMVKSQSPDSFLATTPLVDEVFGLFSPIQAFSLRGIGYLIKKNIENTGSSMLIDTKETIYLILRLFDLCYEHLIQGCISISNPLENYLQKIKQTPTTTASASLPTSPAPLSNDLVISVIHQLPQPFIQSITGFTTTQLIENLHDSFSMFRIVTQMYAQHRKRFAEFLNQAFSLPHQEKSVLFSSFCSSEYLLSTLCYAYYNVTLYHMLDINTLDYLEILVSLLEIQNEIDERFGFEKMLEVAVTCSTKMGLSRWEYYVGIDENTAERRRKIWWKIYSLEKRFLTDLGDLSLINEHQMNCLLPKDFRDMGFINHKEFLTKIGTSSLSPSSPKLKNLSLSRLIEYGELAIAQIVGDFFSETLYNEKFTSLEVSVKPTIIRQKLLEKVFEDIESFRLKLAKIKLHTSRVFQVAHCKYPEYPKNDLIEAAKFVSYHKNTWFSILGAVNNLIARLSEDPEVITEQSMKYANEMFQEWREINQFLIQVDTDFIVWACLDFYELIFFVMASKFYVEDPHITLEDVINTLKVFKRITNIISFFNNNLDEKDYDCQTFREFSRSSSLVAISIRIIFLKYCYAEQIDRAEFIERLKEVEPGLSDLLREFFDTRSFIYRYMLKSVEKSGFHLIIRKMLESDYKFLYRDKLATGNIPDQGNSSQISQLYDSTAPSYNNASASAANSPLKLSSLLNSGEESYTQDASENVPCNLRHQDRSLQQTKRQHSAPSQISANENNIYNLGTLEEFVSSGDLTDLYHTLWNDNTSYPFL
The experiment in a line: PBM E-score (8-mer binding enrichment) (E-score (-0.5 to 0.5)); higher = stronger / more preferred TF binding; most listed sequences are background and not binding sites. The note with it: protein concentration: 200 nM; construct: GST-full length. A digest of the protocol: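 Universal all-10-mer Agilent arrays, fresh or stripped once, were converted to double-stranded form by primer extension. GST-tagged yeast transcription factors from PURExpress in vitro transcription/translation, full-length or DNA-binding domain only, were applied at about 100-200 nM and detected with fluorescent anti-GST. After masliner normalisation, the Universal PBM Analysis Suite scored each ungapped eight-base word together with its reverse complement by E-score.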
For ACTTGCTC, the “PBM E-score” value is -0.167. With ACCATAAT the figure was -0.0319; with CGTCGTAA, -0.0777; with CACAGATC, -0.0459. With AATGGGTC the figure was 0.00661; with CCGATCCC, 0.175; with GCGCCATA, 0.00087. With AGTTTGCA the figure was -0.124.

Take AAATGCAG: the “PBM E-score” value was -0.19. As for TCTTGCCA, the figure is -0.0983. With TCAGGGAA, the “PBM E-score” value is -0.0594. With CAACTTCC the figure was 0.225. With ACCTAGTG the figure was 0.0344. As for AGAGACTA, the figure is -0.149. Consider CACAGCTC, for which the “PBM E-score” value is -0.145. As for AAGATTGG, the figure is 0.014; as for GGCACGAC, -0.0454; as for AAATTCTG, -0.00185. With GCAGGACC the figure was -0.106. As for CCACTATA, the figure is -0.0588; as for GTTTCCGA, 0.429. With GCCGGAGC, the “PBM E-score” value stood at 0.236. With CCCATTCG the figure was -0.0187. With GAAATGAC the figure was 0.016; with AATTTTGC, -0.0148; with AAGCCCTG, -0.149. As for AATATGCG, the “PBM E-score” value is 0.0521. Regarding CCTATTAG, the “PBM E-score” value was -0.155.

For CCCCATAA, the “PBM E-score” value was -0.0128. As to CAGCATCG, the “PBM E-score” value was -0.131. As for AGGGATTC, the figure is -0.0434; as for CGCTGGCA, -0.0515. As to CCATATGC, the “PBM E-score” value is 0.00589. With GATCTATA the figure was -0.013; with CTGGCCAC, -0.0797. As for ACCTGTCC, the figure is -0.0778; as for CAAACCCG, 0.116. Consider AGTTAGCC, for which the “PBM E-score” value was -0.0494. With GGAACTGA the figure was 0.303; with ACGGATAG, 0.216; with ACGGCCGA, 0.293. With CAGCGTCG the figure was 0.0355. As to ATGTAAGG, the “PBM E-score” value was -0.098. CCAGAGCC: the “PBM E-score” value was -0.0854. With CGCTTCTC the figure was 0.0912; with GACTAATA, -0.0553. AGAATGCC: the “PBM E-score” value is -0.0948. With TAGAAATA the figure was -0.0487; with AGTGAACA, -0.107; with TGGTCGAA, -0.246. With GATTTGTA the figure was 0.0487; with CGCTTTAG, -0.0573; with GTTGTTGA, -0.0135. With AACTCGAA the figure was -0.0881.

Take AGCTCATC: the “PBM E-score” value turned out to be 0.063. On to GACGGGCA, for which the “PBM E-score” value was 0.103.

As for CGCAGTAC, the “PBM E-score” value is -0.151. As for TCGCCTAA, the figure is -0.0457; as for CCTAACAG, -0.0931; as for ACGTTATG, -0.0542. With CATGGCTA the figure was -0.115; with GCTTATTA, -0.127.

In the case of CTAGATCA, the “PBM E-score” value was -0.255. As for ACCGTGAG, the figure is -0.177; as for TTAAGGAA, 0.00789. With ACACGAAG the figure was 0.0513.

Take AGGAAAGG: the “PBM E-score” value is -0.311. As for CGTTCAAC, the figure is 0.082; as for CTTGCTGC, -0.269; as for GATGCAAC, -0.0567.

ATACGAGG: the “PBM E-score” value is -0.0563. As for AGCCGCGA, the figure is 0.187. Consider GGACGATA, for which the “PBM E-score” value was found to be 0.0265.

As for CGTCGCGC, the “PBM E-score” value stood at 0.131. As for ACTCGCCG, the figure is 0.179.

Take CATCCCGC: the “PBM E-score” value turned out to be 0.315. As for GTACACCA, the figure is -0.224; as for CAGACTCA, -0.133; as for GGACAGAA, 0.112. For GATTCCGA, the “PBM E-score” value amounted to 0.454. With AAACTAGT the figure was 0.0203.

For ATGAGCGC, the “PBM E-score” value was 0.0358. As for AAAGATTA, the figure is 0.0181; as for CGCTCTTC, -0.0425.

In the case of AAGCTCAC, the “PBM E-score” value was -0.041. With AGATGGCT the figure was -0.182.
